# Test results: PubChem BioAssay AID463173 (ICCB-Longwood Screening Facility, Harvard Medical School, 2010)
# The campaign covered roughly 52,000 compounds. About 1,700 (3.3%) were called active. Rule as the data show it: active = survival mostly below about 52% (no sharp cut-off); inactive = mostly above about 56%. The list shows a part of the results.
# System: Wild type
# Assay: S. aureus survival, RN4220 and DeltatarO strains – OD600, teichoic acid synthesis inhibitors, primary screen (AID 463173)
# Conditions: S. aureus RN4220 wild type/DeltatarO growth, OD600, 18 h, active compounds read low, screened at 18.75 µg/mL (by protocol)
row,SMILES,survival
1,Cc1ccc(NC(=O)/C(C#N)=C/c2cc(C)n(-c3ccc(Br)cc3)c2C)cc1C,inactive: 84%
2,CCOc1ccccc1NC(=O)n1ncc2cc(Cl)ccc21,inactive: 106%
3,C=CCNC(=O)CN1CCC(n2nnc3cc(C(F)(F)F)ccc32)CC1,inactive: 95%
4,Cc1ccc(CCNC(=O)c2ccc(CS(=O)(=O)c3ccc(Cl)cc3)o2)cc1,inactive: 135%
5,COCCNC(=O)CCCN1C(=O)CCn2nc(-c3cccn3C)cc21,inactive: 68%
6,CC1=C(c2ccc(C)cc2)S(=O)(=O)N(Cc2ccc(C(=O)Nc3ccccc3C)cc2)C1=O,inactive: 78%
7,Cc1cc2ccccc2n1CCNC(=O)c1ccc(F)cc1,inactive: 79%
8,CCN1C(=O)C2(c3ccccc31)c1c(oc3ccc(C)cc3c1=O)C(=O)N2CCCOC(C)C (centres undefined),inactive: 84%
9,Cc1cc(O)c(C(c2ccc(Cl)cc2)N2CCN(c3ccccc3)CC2)c(=O)n1Cc1ccco1 (centres undefined),inactive: 92%
10,Fc1ccc(-c2cn3cc(Cc4ccccc4Cl)sc3n2)cc1,inactive: 53%
11,COc1ccc(NC(=O)Cn2c(=O)oc3cc(S(=O)(=O)N4CCCCC4C)ccc32)cc1 (centres undefined),inactive: 60%
12,COC(=O)c1ccccc1NC(=O)CCCN1C(=O)C(c2ccccc2)Oc2cccnc21 (centres undefined),inactive: 84%
13,O=C(c1ccccc1F)N1CCC(c2nc3c(nnn3Cc3cccc(F)c3)c(=O)[nH]2)CC1,inactive: 83%
14,Cc1oc(-c2ccc(C(=O)NC(C)c3ccccc3)cc2)nc1CS(=O)(=O)c1ccccc1 (centres undefined),inactive: 80%
15,O=C1/C(=C/C2=Cc3ccccc3OC2)SC(=S)N1C1CCS(=O)(=O)C1 (centres undefined),inactive: 100%
16,CC(=O)Nc1ccc(NS(=O)(=O)c2cc(Br)cc3c2N(C(=O)C2CC2)CC3)cc1,inactive: 73%
17,COc1cc(OC)c(NC(=O)c2cc(C(C)=O)n3ccccc23)cc1Cl,inactive: 100%
18,COc1ccc(OCC(=O)N(Cc2cccc(OC)c2)C2CCS(=O)(=O)C2)cc1 (centres undefined),inactive: 83%
19,Clc1cccc(Cl)c1COc1ccccn1,inactive: 110%
20,Brc1ccc(-c2noc(-c3ccccc3)n2)o1,inactive: 88%
21,COCCNC(=O)CCCn1c(=O)[nH]c2ccsc2c1=O,inactive: 63%
22,COc1ccc(C)cc1NS(=O)(=O)c1c(C)nc2sc(C)cn2c1=O,inactive: 110%
23,CCOc1ccccc1NC(=O)CSc1ccc2nnc(CCNS(=O)(=O)c3ccccc3)n2n1,inactive: 91%

row,SMILES,survival
1,O=C(O)C1=C(C(=O)Nc2cccc(C(F)(F)F)c2)CCCC1,inactive: 115%
2,O=C(Nc1ccccn1)c1cccs1,inactive: 114%
3,COc1ccccc1NC(=O)C1=C(C)Nc2nc(SCC(=O)c3ccc(C)cc3)nn2C1c1ccccc1C (centres undefined),inactive: 83%
4,COc1ccc(NC(=O)c2sc3nc(C)c(C(=O)Nc4ccc(C)cc4C)c(-c4ccccc4Cl)c3c2N)cc1,inactive: 88%
5,Cc1nn(Cc2noc(C(=O)NCc3cccc(F)c3)n2)c(C)c1Br,inactive: 74%
6,CSCCC(NS(=O)(=O)c1ccc2c(c1)oc(=O)n2C)C(=O)NCc1ccc(F)cc1 (centres undefined),inactive: 89%
7,COc1ccc(-n2cc(C(=O)N(C)c3cc(C)ccc3OC)c3ccccc3c2=O)cc1,inactive: 114%
8,Cc1ccc(Cl)cc1N(C)C(=O)c1noc2c1CCCCC2,inactive: 65%
9,CN(C)CCNC(=O)CCCn1c(=O)c2cccn2c2ccccc21,inactive: 91%
10,CCOc1ccc(NS(=O)(=O)c2ccc3[nH]cc(C(=O)NCCOC)c(=O)c3c2)cc1,inactive: 81%
11,CN(C)CCN(Cc1ccccc1)S(=O)(=O)c1ccc(-c2cc(C(F)(F)F)on2)s1,inactive: 72%
12,CC1=C(C(=O)Nc2cccnc2)C(c2ccccc2)n2nc(SCc3ccccc3)nc2N1 (centres undefined),inactive: 80%
13,Cc1ccc(Cn2nnc3sc4c(c3c2=O)CCC(C)C4)cc1 (centres undefined),inactive: 60%
14,CCC(=O)N1CCc2cc(CNS(=O)(=O)c3c(C)cc(C)cc3C)ccc21,inactive: 71%
15,O=C(Cn1nc(-c2ccccc2)c2cnc3ccccc3c21)Nc1ccccc1,inactive: 64%
16,O=C(/C=C/c1ccccc1)C1=C(O)C(=O)N(CCO)C1c1ccc2c(c1)OCO2 (centres undefined),inactive: 93%
17,Cc1ccc(C)c(NC(=O)CN2C(=O)C3(SCC(=O)N3c3ccc(C)c(C)c3)c3ccccc32)c1 (centres undefined),inactive: 99%
18,CCCCOc1ccc(C(=O)Nc2ccc(S(=O)(=O)Nc3nc(C)cc(C)n3)cc2)cc1,inactive: 77%
19,CC1CCc2nc3ncn(Cc4ccc(Cl)cc4)c(=O)c3cc2C1 (centres undefined),inactive: 80%
20,Cc1ccc2nc(-c3ccc(Cl)c(NC(=O)c4ccc5c(c4)OCCO5)c3)oc2c1,inactive: 85%
21,Cc1nnc(NCc2ccc(Cl)cc2)c2c1nnn2Cc1ccc(F)cc1,inactive: 85%
22,NC(=S)N/N=C/c1ccc(Sc2cccc3cccnc23)o1,inactive: 115%
23,COC(=O)c1ccccc1NC(=O)c1cc(-c2ccc(Cl)cc2)on1,inactive: 71%

row,SMILES,survival
1,CCc1ccc2ncc(S(=O)(=O)c3ccc(Cl)cc3)c(N3CCN(CC)CC3)c2c1,inactive: 79%
2,Cc1nc2ccccc2n1CCc1nc2c3ccccc3nc(SCC(=O)Nc3cccc(C(F)(F)F)c3)n2n1,inactive: 80%
3,Cc1cc(C)cc(-n2c(SCC(=O)N3CCCC3)nc3c([nH]c4ccccc43)c2=O)c1,inactive: 69%
4,Cc1cc(C)nc(NS(=O)(=O)c2ccc(NC(=O)c3ccccc3O)cc2)n1,inactive: 127%
5,COc1ccc(Br)cc1Cn1nnc(C(=O)Nc2ccc(C)cc2C)c1N,inactive: 72%
6,CCCCOc1ccc(C(=O)N2CC(=O)Nc3ccc(Br)cc3C2c2ccc(F)cc2)cc1 (centres undefined),inactive: 77%
7,COc1ccc2c(Sc3ccccc3)c(C(=O)NCC(C)c3ccccc3)[nH]c2c1 (centres undefined),inactive: 88%
8,Cc1ccccc1NC(=O)CSc1nc(-c2ccc(F)cc2)nc2c1Cc1ccccc1O2,inactive: 77%
9,CCC(c1nnnn1Cc1ccccc1)N(Cc1cccs1)Cc1cc2ccc(C)cc2[nH]c1=O (centres undefined),inactive: 115%
10,O=C(CCC1N=C2c3ccccc3N=C(SCc3ccccc3Cl)N2C1=O)NCCc1ccccc1 (centres undefined),inactive: 119%
11,Cc1nn(C(=O)c2ccccc2)c2c1C(=O)CC(C)(C)C2,inactive: 117%
12,Cn1c(=O)n(-c2ccc3c(c2)OCO3)c2nc(-c3ccc(Cl)cc3)nc(C(N)=O)c21,inactive: 76%
13,COc1cc(OC)c(NC(=O)C(c2ccccc2)N2Cc3ccccc3C2=O)cc1Cl (centres undefined),inactive: 69%
14,COc1ccc(NC(=O)C2CCN(S(=O)(=O)c3ccc4[nH]c(=O)ccc4c3)CC2)cc1Cl,inactive: 130%
15,CCS(=O)(=O)N1CCN(C(=O)c2ccccc2Cl)CC1,inactive: 98%
16,CCc1nnc(SCc2cccc(F)c2)c2cc3sc(C)cc3n12,inactive: 83%
17,CCOc1ccc(N2CC(c3nc4ccccc4n3CCCOc3ccccc3OC)CC2=O)cc1 (centres undefined),inactive: 95%
18,CCS(=O)(=O)N1CC(=O)N(c2ccc(Cl)cc2C)C(C)(C(=O)NC2CCCCCC2)C1 (centres undefined),inactive: 73%
19,COc1ccc(CCNC(=O)C2(c3cccs3)CCOCC2)cc1,inactive: 127%
20,O=C(Nc1nonc1-c1ccc(Cl)cc1)c1ccccc1F,inactive: 84%
21,CCOC(=O)c1scc(-c2ccccc2)c1S(=O)(=O)Nc1ccc(N(C)C)cc1,inactive: 68%
22,O=C(/C=C/c1ccccc1)NC1CCSC1=O (centres undefined),inactive: 108%
23,CC(C)CN(CCCNC(=O)c1cc(-c2ccc(Br)s2)nc2ccccc12)CC(C)C,inactive: 97%

row,SMILES,survival
1,COc1ccc(N2CC(NC(=O)/C=C\c3ccc4c(c3)OCO4)CC2=O)cc1 (centres undefined),inactive: 73%
2,COCCCNC(=O)c1ccc(Cn2c(=O)c3ccccc3n(CC(=O)Nc3c(C)cccc3C)c2=O)cc1,inactive: 83%
3,CCOc1cc(C(=O)Nc2ccc3nc(Nc4cccc(Cl)c4)cc(C)c3c2)cc(OCC)c1OCC,inactive: 73%
4,Cc1nn2c(C)c(C(=O)N3CCN(c4ccccc4F)CC3)cnc2c1-c1ccc(F)cc1,inactive: 78%
5,Cc1nnc(SCc2cc(=O)n3cccc(C)c3n2)s1,inactive: 89%
6,CCCC(CCC)C(=O)Nc1cccc(-c2nc3cccnc3s2)c1C,inactive: 109%
7,COc1cccc(-c2nc(CS(=O)(=O)CC(=O)NCCc3ccc(OC)cc3OC)c(C)o2)c1,inactive: 83%
8,Cc1cccc(CCNC(=O)C2CCC(CNS(=O)(=O)c3ccccc3)CC2)c1 (centres undefined),inactive: 85%
9,Cc1nc2ccn(Cc3ccco3)c(=O)c2cc1C(=O)NCc1ccccc1F,inactive: 75%
10,O=C(NCc1ccccc1Cl)C1CCN(S(=O)(=O)Cc2ccccc2)CC1,inactive: 89%
11,CCOC(=O)c1ccc(NC(=O)c2cnn(-c3ccc(C)cc3C)c2C2CCN(C(=O)OC(C)(C)C)CC2)cc1,inactive: 74%
12,COc1ccc(Cl)cc1NC(=O)CSC1=Nc2ccccc2C2=NC(CCC(=O)NCc3ccc(F)cc3)C(=O)N12 (centres undefined),inactive: 88%
13,O=C(Nc1ccc(F)c(Cl)c1)C1CCN(C(=O)c2ccc(F)cc2)CC1,inactive: 70%
14,N#Cc1ccccc1Cn1c(=O)n(CCCC(=O)NCc2ccccc2Cl)c(=O)c2ccccc21,inactive: 152%
15,CCSc1ncc(Cl)c(C(=O)Nc2nnc(CC)s2)n1,inactive: 88%
16,Cc1cccc(NC(=O)CSc2ncc(-c3ccccc3)[nH]2)c1C,inactive: 62%
17,O=C(c1ccccc1F)N1c2ncnn2C2(CCCCC2)[C@@H]2CCCC[C@@H]21,inactive: 117%
18,Cc1cccc(Nc2nc(N)nc(N)c2S(=O)(=O)c2ccccc2)c1,inactive: 70%
19,CN1CCc2c(sc(N)c2C(=O)O)C1,inactive: 93%
20,CCC(C(=O)NCCc1ccccc1)n1nc(C)c2sc3ccccc3c2c1=O (centres undefined),inactive: 80%
